# Some of the results follow. The energies were worked out here from pooled read counts, against the library average; single values are noisy.
# Molecular target: T1, Pho4 (S. cerevisiae) (UniProt P07270)
# T1 sequence: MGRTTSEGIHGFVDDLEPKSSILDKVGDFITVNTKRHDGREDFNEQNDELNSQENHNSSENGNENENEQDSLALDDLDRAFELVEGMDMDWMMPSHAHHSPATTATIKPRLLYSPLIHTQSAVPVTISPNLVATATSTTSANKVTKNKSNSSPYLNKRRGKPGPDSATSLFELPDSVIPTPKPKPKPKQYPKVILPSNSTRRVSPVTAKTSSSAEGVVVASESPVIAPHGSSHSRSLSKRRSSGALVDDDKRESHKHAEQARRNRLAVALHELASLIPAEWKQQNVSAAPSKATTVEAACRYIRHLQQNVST
# Test: relative binding free energy (BET-seq); higher = weaker binding
# Conditions: reference: library average
row,Sequence,relative binding free energy
1,TGGGACACGTGAGTTA,0.28 kcal/mol
2,TGTCGCACGTGTTGGT,0 kcal/mol
3,GTATTCACGTGGTTTA,0.26 kcal/mol
4,GCTTGCACGTGGGCTA,-0.01 kcal/mol
5,TTTATCACGTGAATTA,0.36 kcal/mol
6,CTTTACACGTGGGGTG,-0.06 kcal/mol
7,TAAGTCACGTGGAGGT,0.1 kcal/mol
8,TTCGTCACGTGTAGCG,0.03 kcal/mol
9,GTCGGCACGTGTTCGT,0 kcal/mol
10,TATTTCACGTGTGCAT,0.15 kcal/mol
11,GATTGCACGTGGTTCT,0.09 kcal/mol
12,TGGTCCACGTGTTTTA,0.05 kcal/mol
13,ATGGACACGTGAATTT,0.37 kcal/mol
14,TGGATCACGTGTCATG,0.14 kcal/mol
15,AACGGCACGTGTAATG,0.12 kcal/mol
16,ATGTGCACGTGATATT,0.09 kcal/mol
17,GATATCACGTGTATGT,0.04 kcal/mol
18,TGCGACACGTGAGGAG,0.26 kcal/mol
19,CTTTTCACGTGAGTGC,0.4 kcal/mol
20,GAGAGCACGTGTTGAG,0.02 kcal/mol
21,GTGATCACGTGCGTTT,0.12 kcal/mol
22,AAAGGCACGTGTTGAT,-0.15 kcal/mol
23,TTAAGCACGTGTAGCG,-0.01 kcal/mol

row,Sequence,relative binding free energy
1,GTTAACACGTGTGATT,0.08 kcal/mol
2,CGGCTCACGTGTGGAT,0.3 kcal/mol
3,TTGGCCACGTGAAAGG,0.21 kcal/mol
4,GATGACACGTGGGGGG,-0.05 kcal/mol
5,ATTGGCACGTGTTTGT,-0.07 kcal/mol
6,GAGAACACGTGGTTGG,0.07 kcal/mol
7,AATGGCACGTGATTAT,-0.12 kcal/mol
8,TGGGCCACGTGGGTGT,-0.17 kcal/mol
9,AGTTTCACGTGTATCT,0.1 kcal/mol
10,TGTAGCACGTGGGCTA,-0.3 kcal/mol
11,ATTGTCACGTGAGCGT,0.2 kcal/mol
12,TGAGTCACGTGCGGCG,0.07 kcal/mol
13,TATTTCACGTGGTCAG,0.25 kcal/mol
14,GAGCTCACGTGGTCGG,0.25 kcal/mol
15,GATTCCACGTGGTGGT,0.02 kcal/mol
16,GTTAACACGTGTGAGC,0.09 kcal/mol
17,GTGATCACGTGGGATA,0.05 kcal/mol
18,GTTAACACGTGGAGAA,0.23 kcal/mol
19,ATCGTCACGTGTAGAG,0.13 kcal/mol
20,AGCGGCACGTGTGTCT,-0.08 kcal/mol
21,CAGAGCACGTGTGGGC,0.1 kcal/mol
22,TGAGTCACGTGATAAG,0.24 kcal/mol
23,GTTAGCACGTGTTTCA,0.08 kcal/mol

row,Sequence,relative binding free energy
1,TCAAACACGTGTTGGG,-0.11 kcal/mol
2,AGTTTCACGTGTTCCT,0.33 kcal/mol
3,GGCATCACGTGGTTTT,0.22 kcal/mol
4,TTCTTCACGTGGGAAA,0.19 kcal/mol
5,TAAATCACGTGTGGGG,0.19 kcal/mol
6,ATATACACGTGATTGT,-0.06 kcal/mol
7,TTAGTCACGTGGAAAG,0.21 kcal/mol
8,GAAAGCACGTGGGGGT,-0.19 kcal/mol
9,ATAAGCACGTGTTGCG,-0.15 kcal/mol
10,CCGGGCACGTGTGGAG,-0.1 kcal/mol
11,TAGGTCACGTGAATAT,0.31 kcal/mol
12,TTTGGCACGTGGCAGG,-0.12 kcal/mol
13,TATTTCACGTGGTCGA,0.12 kcal/mol
14,TAGAGCACGTGATTGA,0.03 kcal/mol
15,CAGGGCACGTGAAGGG,0.2 kcal/mol
16,GTTGGCACGTGCATGT,-0.13 kcal/mol
17,GTAGGCACGTGGCGCA,-0.17 kcal/mol
18,TGAAGCACGTGAAGAG,0.24 kcal/mol
19,TAGTTCACGTGGGTGC,0.14 kcal/mol
20,GTTATCACGTGCAATG,0.22 kcal/mol
21,AGGAACACGTGATAGT,0.17 kcal/mol
22,GTTGCCACGTGAGTGG,0.07 kcal/mol
23,CGTGGCACGTGGGCAT,-0.2 kcal/mol

row,Sequence,relative binding free energy
1,ATTGGCACGTGGTGAG,-0.09 kcal/mol
2,CAATTCACGTGGGGGG,-0.01 kcal/mol
3,GGCGTCACGTGTGGAA,0.16 kcal/mol
4,CATTGCACGTGCGTAT,0.05 kcal/mol
5,CGTAGCACGTGGAATG,-0.02 kcal/mol
6,TTTTTCACGTGGGTAA,0.28 kcal/mol
7,ATCTGCACGTGTTTTA,-0.01 kcal/mol
8,TGGCGCACGTGTTTAG,-0.14 kcal/mol
9,TGGGGCACGTGTGCGG,-0.06 kcal/mol
10,GTTGTCACGTGTCAAT,0.16 kcal/mol
11,GGGGTCACGTGTACAT,0.08 kcal/mol
12,GCAAACACGTGGGGGG,-0.12 kcal/mol
13,CTGTGCACGTGGGGTA,-0.24 kcal/mol
14,GGGCGCACGTGATTTT,0.33 kcal/mol
15,GCTGTCACGTGAGTTT,0.34 kcal/mol
16,TAATTCACGTGTAAGG,0.14 kcal/mol
17,GTATGCACGTGGTAAG,0.05 kcal/mol
18,CATGTCACGTGTTATT,0.04 kcal/mol
19,TGTTCCACGTGTGAGA,0.2 kcal/mol
20,TTTTTCACGTGAGTTA,0.39 kcal/mol
21,CGTTTCACGTGTAGGT,0.09 kcal/mol
22,GGGGGCACGTGGATTC,0.14 kcal/mol
23,GAGGGCACGTGGAAGT,0.01 kcal/mol

row,Sequence,relative binding free energy
1,CATGTCACGTGGTTGT,0.04 kcal/mol
2,GTTTACACGTGCGGTG,0 kcal/mol
3,GTAATCACGTGAGTGA,0.36 kcal/mol
4,GTAGTCACGTGTTACT,0.25 kcal/mol
5,GTGGTCACGTGAGATT,0.33 kcal/mol
6,ATGGTCACGTGGAAGG,0.18 kcal/mol
7,GTCTTCACGTGAGCGT,0.41 kcal/mol
8,TTGTTCACGTGCAAGT,0.29 kcal/mol
9,TTGTTCACGTGCGGTC,0.25 kcal/mol
10,GGGTTCACGTGGGATT,0.33 kcal/mol
11,GGTTTCACGTGGCATT,0.27 kcal/mol
12,GGGGTCACGTGGGTCG,0.05 kcal/mol
13,ATGTGCACGTGGACAG,-0.06 kcal/mol
14,TTGACCACGTGTGTGG,0 kcal/mol
15,GTTTCCACGTGGTTAG,0.19 kcal/mol
16,TTGTACACGTGAGACG,0.28 kcal/mol
17,ATAAACACGTGGGTAG,-0.06 kcal/mol
18,CATGTCACGTGGTATT,-0.06 kcal/mol
19,TTTTTCACGTGAGTAA,0.32 kcal/mol
20,GATTGCACGTGGGTTG,-0.05 kcal/mol
21,AATATCACGTGAGTGG,0.31 kcal/mol
22,ATGTGCACGTGAACGT,0.06 kcal/mol
23,GGCGGCACGTGAGATG,0.3 kcal/mol

# Source: the BET-seq Pho4 binding data (Le et al. 2018)
